# Over roughly 1,800 sequences, “median log2 fold change of GCK-ALFA target abundance (FLAG IP / Myc IP barcode read proportion)” has its median near 0.14; the lowest 2% begin near -0.84. The list shows a part of the results.
# T1: TRAF2, Q12933
# T1 chain: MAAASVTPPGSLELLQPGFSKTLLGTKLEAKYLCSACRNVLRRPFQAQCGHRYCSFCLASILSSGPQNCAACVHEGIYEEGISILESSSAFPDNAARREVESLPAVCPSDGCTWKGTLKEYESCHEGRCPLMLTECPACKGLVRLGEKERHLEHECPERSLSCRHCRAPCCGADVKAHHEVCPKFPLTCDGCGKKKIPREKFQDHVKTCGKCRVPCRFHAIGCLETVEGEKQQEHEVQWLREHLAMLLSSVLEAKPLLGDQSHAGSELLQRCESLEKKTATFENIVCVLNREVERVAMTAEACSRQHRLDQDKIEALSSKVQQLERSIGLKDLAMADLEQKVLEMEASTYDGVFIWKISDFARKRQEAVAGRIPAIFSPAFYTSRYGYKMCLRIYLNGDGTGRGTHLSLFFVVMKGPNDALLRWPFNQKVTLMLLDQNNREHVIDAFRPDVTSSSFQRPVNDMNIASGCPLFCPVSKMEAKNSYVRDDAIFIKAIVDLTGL
# B1: traf2_out_11_131_659 (protein)
# chain: MDAVATARSAAERVDAALAHAATLSPEERRRVARHALDTLEAVAEYLTAHAAEMSPAAVAEAVAILRAARARVLALDPSVAPEAAEVDAALAALLAAAAA
# B2: traf2_out_20_3_2082 (protein)
# chain: EELLKELEKELERAIKLLKEAAKKSDPETAARLEKLIEEIKASRELPLTDRLVVLSRVRREVLLLAQEAKAKGDEELAKILEEAADALNRAMNLLMKLIE
# B3: traf2_out_11_169_825 (protein)
# chain: KEAEFNRKVNDKALELNDEAIKELKEFALELAKEEGLDVEEVKAIFEKLKGASLSAVAAALIEYFKSKGKEEAAKKIEEKYEELKEKINKEMSKFLKELE
# B4: traf2_out_15_48_1351 (protein)
# chain: STEALLATAREVNDLIDATLDEVARELEALRPRVPPELRPLLDRAIELASRTGTITEVIALLRELRKRASPELAKELDELIERLEATRKEASALMNETLK
# B5: traf2_out_16_171_1432 (protein)
# chain: SAEEKEKKLKEEIKARRDSLIERMETMVEVAPLISKETGLSIEQIAKGVESTFTDKIEALEKELEEKAKDASPEVKKYMKEALKEIKEAREKALKEIKAL
# B6: traf2_out_17_162_1544 (protein)
# chain: SSLEEELAELEAELERLEKERERLESLLPELSKMSKEELTDLLVEASEARRRARLLAERIRELREEIGEERARELEERARRVAEELQRIANAIYKEILKK
# B7: traf2_out_20_38_2022 (protein)
# chain: SEEEEEKKKLEELVKVANEAYDEYTARFAEWKAAGKTVEEIAEEVKERIRELLTAAGLEEEAEILIEEVDLALKSPEAERLLVRTLARAVALVHQKELQK
# B8: traf2_out_11_155_749 (protein)
# chain: EKKLELLNKTTNEITDIWDEALKEADKIAAEAKAEHPEHAAEIDAVLEASKNYSPRSRILLLKRKFEELGLEEYAKRLEELIEKAQKEANEIVKKTEEEL
# B9: traf2_out_13_95_1093 (protein)
# chain: SAEVAKKINEIADEMLDKSLELLEELLKIAEKKGKAVEEVKKAIDLAKYRSINEAIHLLKELAKKYPEFEKELNETIEKIEELKREAGKKVAEILKEEKE
# B10: traf2_out_11_169_841 (protein)
# chain: EEQAKNRAINDKALELNDEAKEKLKAHAKELAKAAGLDVADIDAIFAANKGKSFSAIAGALIAYFTSKGKADAAAAVLAKYEELRDEVNKKATAFIKSLE
# B11: traf2_out_13_95_1171 (protein)
# chain: SEEKTKKEREIASEAFDKMEEVATRYRDEVLALIDDPEVAALMDEVVRNMNIETLRAAAARIQAAHPEKAAEIQALADKAIAEMREIRKETTEKLNAIEE
# B12: traf2_out_16_104_1398 (protein)
# chain: MEERKKKAEEIIKELEAIADELQKLLNELYKLYEEVSPEKKDAVADAMVAASEARRYALEAAERARKLAEEGGDLKEAEEMLKEAKERLAAAKKELAALK
# B13: traf2_out_6_156_2412 (protein)
# chain: MVEEILEKALEKVEELIKELAKASEEKKIAYISKIAGTAYRALQELREAGASLEEIEAFAEEFKKRTEELLKEAGLPEDTINLVLSALNAVFDVAIAEAK
# B14: traf2_out_20_38_2021 (protein)
# chain: SEEEEEEKKLEELIKKAQEAYDAAEAWIAALQAAGKSVAEIAEAAKARVREKLNAAGLEEEAEELVADIDRVLDSPDALRLIARILARAETLVFQKKLQE
# B15: traf2_out_6_169_2484 (protein)
# chain: SEEEELRKEAERHLKRARELLELARTIYEQVKKNNDLENLDNYILALETLLSAADRHYDLAIAYLRKLGKEEEAAEVEAERARHRAEMEAMIADVKKLKE
# B16: traf2_out_18_147_1809 (protein)
# chain: SWREAIDKLADLSEEIRKKMDEIAKLTGKEEEMEKLRDILTSTSVSEEEKEKAVEKAKKEYKAEGKEEAVALLDEALELSKKRDEAAKEANKLINEEEAK
# B17: traf2_out_20_3_2222 (protein)
# chain: SELKEEIRKKLEEIRKLLEEAKPLLPPEKYEELERLLKEAEEALETDLTDALVKLSELRRLALELAQEAAAAGNEELAALLEEMAELANKAAGLVLKAIE
# B18: traf2_out_13_95_1182 (protein)
# chain: SEETKEKINQIADDMIAQVEAVLDAAAKAVADDPEVKAALNAIRDTAVTKGISTAIHQLTELAAANPEHKELLTAALDQIKAIRTQAGKEVAKIIKEEEE
# B19: traf2_out_14_166_1286 (protein)
# chain: MTPEEIARIREIVDKLEPLNDKAVAEAEAILEKNKDKLSPEDLAKANELLDIARRNIGSSAINALKEMAEIFKKAGLEEAAKKFKELAKKLEEKLSELNK
# B20: traf2_out_13_95_1040 (protein)
# chain: TAELAKQINAIADEMVEKSLALLDEAAAELADDPEAVAVLEEARRLAETRGISEAIHLLDEAAAADPEHAARFEALRAELEAIRREAGRKVAALIKEAQA
# B21: traf2_out_18_117_1779 (protein)
# chain: MRREELIRRLEEIAERLDRAASELGTVFLENYEKLTPEEKSEIMDVLAELTAVRRRALELIELIREGKIPVEEAEKELEELEKEAEEAIERAERRIKEIK
# B22: traf2_out_17_162_1472 (protein)
# chain: MSIEERVEELEAELKELEERAEELEKKLENLENMSKEEITDLLVEASELRRRARQLAIEFEELAPEIGEERAKELAERALEIAERLQRIANKIYKELEKK
# B23: traf2_out_18_3_1914 (protein)
# chain: SAEERKKVSDKIDEIVDEATARAREALARLRAEHPEVAERAAALEADLAAGAGPFGILEALAELAREAGDEERAEEIERFLREKRKELQELVDEYEKLLK
# B24: traf2_out_18_3_1930 (protein)
# chain: TEEERQKISDKIDEIVDEARARAEAELARAAAEYPEYAAEIDALRATLAAGGAPFGVLDALAELYEKAGDTARAAELEAWLTEKRKEMQELVDEYEKEIK
# B25: traf2_out_17_162_1532 (protein)
# chain: SELEERLRELEEELRELEKRLEELEKELENLENMSKEELSDLLVEASEARRRALELAEELRELRSEIGEERAEELIRRAEEIAERLQRIANKIYEELEKK
# B26: traf2_out_1_156_899 (protein)
# chain: SNADKQYQKLKEFLHKPEVSKLLREAAGYLADIVDILKKAEKEKAPQEVIDKLKKIEEEAKKYLSEMVSNTELTLEELKKLVEKIKELKEEAKKLYEEFK
# B27: traf2_out_14_17_1295 (protein)
# chain: SILEELKEIEKQAKELAKKYPELALELGQLERKARSALVLAEMYLEDKSYKPELLEALKNLEKLAKEVAKKLKPKSKEAVKELEEIEKRAREILKKVEAE
# B28: traf2_out_17_178_1701 (protein)
# chain: SKEEIRKKISELTDKLIDLADEYGARLLALAEAEGVLSPEELAALRAALASGSNRTLLATAEELLPRSAASPELRALLAEFRAEYRKLSKEIAEAYKEYE
# B29: traf2_out_15_180_1320 (protein)
# chain: MTEEELERRIELANKVADEADARLDALLAANPELSPAERAALRALRRSLVTLYMNGEYEEAAAALERAKARLSPRAAAVADELAAFIKEKVEAAKKELAA
# Target: T1, TRAF2, Q12933
# Experiment: median log2 fold change of GCK-ALFA target abundance (FLAG IP / Myc IP barcode read proportion) (log2 ratio); each designed protein is fused to an ALFA-tag nanobody in HEK293 cells to bring the named protein to FLAG-tagged glucokinase (GCK); Myc marks an untargeted standard; higher = target protein stabilised (more abundant)
# Details: target protein: 3xFLAG-MCP-GCK-ALFA reporter; HEK293 landing pad (RPLP)
# Outline: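 HEK293 landing-pad cells received a recombined binder library fused to the ALFA nanobody and were induced with 2 μg mL^−1 doxycycline, then transfected with a plasmid encoding a FLAG-tagged target and a Myc-tagged standard. Lysates were collected after 48 h for anti-FLAG and anti-Myc immunoprecipitation, and the circular RNA barcodes were reverse transcribed, amplified and sequenced. Target abundance for each binder is the median log2 ratio of FLAG to Myc barcode read proportions. Barcodes had to reach a proportion of at least 10^−7 in both replicates, each binder needed at least 3 barcodes per replicate, a pseudocount of 10^−6 was applied, and the two replicates were pooled.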
row,Binder,median log2 fold change
1,B1,-0.0419
2,B2,-0.0159
3,B3,0.317
4,B4,0.204
5,B5,-0.397
6,B6,0.31
7,B7,-0.885
8,B8,0.554
9,B9,0.00881
10,B10,-0.215
11,B11,-0.0714
12,B12,0.451
13,B13,0.261
14,B14,0.274
15,B15,-0.181
16,B16,0.0738
17,B17,-0.0477
18,B18,-0.0403
19,B19,0.173
20,B20,-0.662
21,B21,0.00992
22,B22,0.26
23,B23,0.282
24,B24,0.141
25,B25,0.0409
26,B26,-0.247
27,B27,0.266
28,B28,0.0696
29,B29,0.018

# Source: the supplement of paper PMC12632987
